Results published in a collection of fitness landscapes (doi:10.1016/j.celrep.2020.107928).
In all, about 81,000 sequences were measured (“one-hybrid fitness for binding parS DNA”: median about -0.17, highest 2% from about 0.51 on). This is one part of the list.

B1: Caulobacter ParB omega fusion; a variant is named by its letters at X, in order, B8GW30 (parent)
chain: MESVVVGEPGMSEGRRGLGRGLSALLGEVDAAPAQAPGEQLGGSREAPIEILQRNPDQPRRTFREEDLEDLSNSIREKGVLQPILVRPSPDTAGEYQIVAGERAWRAAQRAGLKTVPIMVRELDDLAVLEIGIIENVQRADLNVLEEALSYKVLMEKFERTQENIAQTIGKSXSHVANXMRLLXLPDEVQSYLVSGELTAXHARAIAAAADPVALAKQIIEGGLSVRETEALARKAPNLSAGKSKGGRPPRVKDTDTQALESDLSSVLGLDVSIDHRGSTGTLTITYATLEQLDDLCNRLTRGI

Variants of: B1
Experiment: one-hybrid fitness for binding parS DNA (scaled: cognate 1, non-cognate 0); higher = stronger binding
Conditions: with parS DNA site
How it was run: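 Caulobacter ParB libraries with four specificity codons randomised were screened by bacterial one-hybrid selection in the E. coli USO strain, using a HIS3 reporter whose site lies 19 bp from the promoter. Selection ran for 48 hours at 37°C on M9 lacking histidine, with 0.1 mM IPTG and 5 mM 3-AT. Plasmids were Illumina-sequenced before and after selection, three replicate libraries were pooled, and variants with under 10 reads were dropped. Fitness is the log change in each variant's read ratio to wild type, rescaled against the cognate and non-cognate sites.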

Variant | one-hybrid fitness for binding parS DNA
AYQT | ≤ 0.2
TVSW | ≤ 0.2
ACEA | ≤ 0.2
QQDM | ≤ 0.2
VNLV | ≤ 0.2
NVTC | ≤ 0.2
GADR | ≤ 0.2
VDQK | ≤ 0.2
GILS | ≤ 0.2
GQSV | ≤ 0.2
DFWS | ≤ 0.2
TITY | ≤ 0.2
KGPS | ≤ 0.2
TFDY | ≤ 0.2
GRCN | ≤ 0.2
APVQ | ≤ 0.2
RSTV | ≤ 0.2
LPIS | ≤ 0.2
HAGC | ≤ 0.2
HYSY | ≤ 0.2
YATP | ≤ 0.2
FFCR | ≤ 0.2
QLDL | ≤ 0.2
DAFR | ≤ 0.2
QQHD | ≤ 0.2
CPLR | ≤ 0.2

Variant | one-hybrid fitness for binding parS DNA
LNCA | ≤ 0.2
MCHS | ≤ 0.2
MGES | ≤ 0.2
PSFY | ≤ 0.2
KRPR | ≤ 0.2
TLFS | ≤ 0.2
PFLR | ≤ 0.2
RANG | 1
NHSF | ≤ 0.2
PRLC | ≤ 0.2
ELRR | ≤ 0.2
RQDR | ≤ 0.2
STNA | ≤ 0.2
YSKA | ≤ 0.2
LLFG | ≤ 0.2
TNIW | ≤ 0.2
VGKV | ≤ 0.2
TAKP | ≤ 0.2
HRRR | ≤ 0.2
SRPL | ≤ 0.2
QPGP | ≤ 0.2
TTSM | ≤ 0.2
TAII | ≤ 0.2
RCYR | ≤ 0.2
FTPT | ≤ 0.2
SCLP | ≤ 0.2

Variant | one-hybrid fitness for binding parS DNA
CAYF | ≤ 0.2
VDFT | ≤ 0.2
DDMC | ≤ 0.2
FVHL | ≤ 0.2
TPAL | ≤ 0.2
TMTM | ≤ 0.2
QTYF | ≤ 0.2
TMGR | ≤ 0.2
MQTL | ≤ 0.2
GNNW | ≤ 0.2
ECNI | ≤ 0.2
YVRT | ≤ 0.2
SELC | ≤ 0.2
LAFQ | ≤ 0.2
AVTI | ≤ 0.2
HRSF | ≤ 0.2
FYVW | 0.24
HWLL | ≤ 0.2
MTRN | ≤ 0.2
ERWS | ≤ 0.2
TAFC | ≤ 0.2
MLPP | ≤ 0.2
SSSE | ≤ 0.2
TNKS | ≤ 0.2
QVEG | ≤ 0.2
PGHT | ≤ 0.2

Variant | one-hybrid fitness for binding parS DNA
MHHS | ≤ 0.2
VKSQ | ≤ 0.2
PQQT | ≤ 0.2
EAYT | ≤ 0.2
KNEM | ≤ 0.2
GNIK | ≤ 0.2
DTHE | ≤ 0.2
TCLS | ≤ 0.2
KSCN | ≤ 0.2
SERA | ≤ 0.2
PGSC | ≤ 0.2
MQAG | ≤ 0.2
TTYG | ≤ 0.2
CPVF | ≤ 0.2
YNLS | ≤ 0.2
RRTL | ≤ 0.2
REDD | ≤ 0.2
PLAL | ≤ 0.2
TLDA | ≤ 0.2
KSME | ≤ 0.2
RGFH | ≤ 0.2
DYYI | ≤ 0.2
WPRC | ≤ 0.2
FKLL | ≤ 0.2
LRHH | ≤ 0.2
ANWR | ≤ 0.2

Variant | one-hybrid fitness for binding parS DNA
CRII | ≤ 0.2
GIRC | ≤ 0.2
APGS | ≤ 0.2
TAFF | ≤ 0.2
VSGI | ≤ 0.2
IGSI | ≤ 0.2
FSPT | ≤ 0.2
LSIN | ≤ 0.2
LVFS | ≤ 0.2
IVRR | ≤ 0.2
DAGW | ≤ 0.2
GQKG | ≤ 0.2
QKGL | ≤ 0.2
VQHC | ≤ 0.2
ICTS | ≤ 0.2
IQDG | ≤ 0.2
RFGH | 0.245
RWWS | 0.644
HCRG | ≤ 0.2
SPQK | ≤ 0.2
RQMM | 0.33
LDMP | ≤ 0.2
TPGR | ≤ 0.2
HHDY | ≤ 0.2
FKQS | ≤ 0.2
QRDT | ≤ 0.2

Variant | one-hybrid fitness for binding parS DNA
DRPF | ≤ 0.2
ALSM | ≤ 0.2
TWFP | ≤ 0.2
AIGY | ≤ 0.2
FLFV | ≤ 0.2
QPDI | ≤ 0.2
NAEC | ≤ 0.2
DPTY | ≤ 0.2
FPNC | ≤ 0.2
ASWS | ≤ 0.2
SSKH | ≤ 0.2
MDAT | ≤ 0.2
QVIQ | ≤ 0.2
PFHG | ≤ 0.2
AAKS | ≤ 0.2
ANSY | ≤ 0.2
SSDI | ≤ 0.2
ICQG | ≤ 0.2
PKYV | ≤ 0.2
IACY | ≤ 0.2
RQHW | 0.207
PLVG | ≤ 0.2
ILWS | ≤ 0.2
